# Experimental data reported in PubChem BioAssay AID463173 (ICCB-Longwood Screening Facility, Harvard Medical School, 2010).
# The campaign covered roughly 52,000 compounds. About 4,300 (8.3%) were called active. No stated cut-off is given here; in the data, active means survival mostly below about 52% (no sharp cut-off); inactive means mostly above about 56%. This is one part of the list.
# Tested on: DeltatarO mutant
# Assay: growth inhibition of S. aureus wild type versus tarO mutant, primary screen, teichoic acid synthesis inhibitors, RN4220, OD600 (AID 463173)
# Details: OD600, 18 h, active compounds read low, screened at 18.75 µg/mL (by protocol)
row,Structure (SMILES),survival
1,Cc1ccc(N2CC(NC(=O)c3ccc(Br)o3)CC2=O)cc1C (configuration not stated),active: 37%
2,COc1cccc2cc(-c3nnc(-c4ccc(Cl)cc4)o3)c(=O)oc12,inactive: 115%
3,CCc1nn(CC(=O)N2CCN(c3cccc(C(F)(F)F)c3)CC2)c(=O)c2cc3occc3n12,inactive: 94%
4,Cc1cc(C(F)F)n2ncc(C(=O)NCc3ccccc3)c2n1,inactive: 95%
5,COc1cccc(N2CCN(C(=O)Cn3cnc4onc(-c5ccc(F)cc5)c4c3=O)CC2)c1,inactive: 117%
6,CCCCCn1c(=O)[nH]c2cc(C(=O)Nc3ccc(OC)c(OC)c3)ccc2c1=O,inactive: 66%
7,COc1cccc(-c2nc(CS(=O)(=O)CC(=O)NCCCN3CCN(C)CC3)c(C)o2)c1,inactive: 86%
8,COc1ccc(CNc2oc(COc3cccc(C)c3)nc2C#N)cc1,active: 40%
9,Cn1cc(S(=O)(=O)N2CCCC2)cc1C(=O)Nc1ccc(C(F)(F)F)cc1,inactive: 107%
10,O=C(Nc1ccc(NC(=O)c2ccc(Br)cc2)c(Cl)c1)c1ccc(Br)cc1,inactive: 92%
11,COc1ccc(C(=O)Nc2nc3ccc(S(=O)(=O)N4CCCC4)cc3s2)cc1,inactive: 83%
12,CC(=O)Nc1cccc(NC(=O)C2(c3cccs3)CCOCC2)c1,inactive: 99%
13,Cc1ccc(SCc2nc(-c3ccc(C(=O)NCc4ccccc4Cl)cc3)oc2C)cc1,inactive: 84%
14,CCOC(=O)CC(=O)CSc1nc2ccccc2c(=O)n1CCc1ccccc1,inactive: 84%
15,COc1cccc(-c2nnc3n(CCc4ccccc4)c(=O)c4ccccc4n23)c1O,inactive: 79%
16,Cn1c(=O)c(=O)n(C)c2cc(N3CCCC3)c(NC(=O)c3ccc(C(C)(C)C)cc3)cc21,inactive: 59%
17,COc1ccc(C)cc1NC(=O)C1CCCN(S(=O)(=O)c2ccc3c(c2)oc(=O)n3C)C1 (configuration not stated),inactive: 94%
18,CCOC(CSc1nnc2c3ccccc3n(CC)c2n1)OCC,inactive: 80%
19,CCOc1ccccc1CNC(=O)CN1C(=O)CCn2nc(-c3cn(C)c4ccccc34)cc21,inactive: 66%
20,O=C(c1ccc2c(c1)N(Cc1cccc(Cl)c1)C(=O)c1ccccc1S2(=O)=O)N1CCC(Cc2ccccc2)CC1,inactive: 98%
21,COc1ccc(CNC(=O)c2ccc3c(c2)NC(=O)C(CS(=O)(=O)Cc2ccccc2Cl)N3)cc1 (configuration not stated),inactive: 58%
22,CCc1cccc(CC)c1NC(=O)c1c(C)oc2ccc(O)c(CN3CCOCC3)c12,inactive: 90%

row,Structure (SMILES),survival
1,COc1cc(Cl)c(C)cc1Nc1c2c(nc3ccccc13)CCC2,inactive: 70%
2,Cc1nc2ccc(S(=O)(=O)N(CC(=O)Nc3ccc(Cl)cc3)Cc3ccccc3)cc2s1,inactive: 58%
3,CCOC(=O)c1cccc(NS(=O)(=O)c2c(C)nc3sc(C)cn3c2=O)c1,inactive: 89%
4,CCc1ccc(NC(=O)C2CCN(S(=O)(=O)c3c(C)noc3/C=C/c3cccs3)CC2)cc1,inactive: 89%
5,CC(C)(C)C(=O)N1CCCC(c2nc3c(nnn3Cc3ccc(C(C)(C)C)cc3)c(=O)[nH]2)C1 (configuration not stated),active: 1%
6,CCn1cc(C(=O)NCCOC)c(=O)c2cc(S(=O)(=O)N3CCOCC3)ccc21,inactive: 82%
7,Cc1ccc(C(=O)CCCn2nnc(-c3ccncc3)n2)cc1C,inactive: 100%
8,COc1cc(OC)cc(C(=O)Nc2ccc3oc(-c4ccc(Cl)cc4)nc3c2)c1,active: 50%
9,O=C(c1cccc(C(F)(F)F)c1)C1CCN(C(=O)N2CCOCC2)CC1,inactive: 103%
10,CCOC(=O)C1=C(c2ccccc2)Nc2ncnn2C1c1ccc(Cl)cc1 (configuration not stated),inactive: 83%
11,O=C(CCC1N=C2c3ccccc3N=C(SCC(=O)Nc3ccccc3F)N2C1=O)NCc1cccs1 (configuration not stated),inactive: 96%
12,COc1ccc(NC(=O)CN(C)S(=O)(=O)c2ccc3c(c2)CCCN3C(C)=O)cc1Cl,inactive: 90%
13,Cc1cc(Nc2ccc(C(C)C)cc2)nc(-n2nc(C)cc2C)n1,inactive: 90%
14,CC(C)c1nnc(NC(=O)c2ccccc2)s1,inactive: 80%
15,CCCCCn1c(=N)c(S(=O)(=O)c2ccccc2)cc2c(=O)n3cccc(C)c3nc21,inactive: 82%
16,Cc1cccc2sc(N(Cc3cccnc3)C(=O)Cc3ccccc3)nc12,inactive: 81%
17,Cc1nnc(SCc2ccccc2Cl)c2cc3occc3n12,inactive: 74%
18,CC(C)Oc1cccc(C(=O)Nc2ccc(-c3nc4cc(Cl)cc(Cl)c4o3)cc2)c1,inactive: 55%
19,COc1cc(-c2noc(-c3ccc(NC4CCCCC4)c([N+](=O)[O-])c3)n2)cc(OC)c1OC,inactive: 76%
20,O=C(NCCN1CCOCC1)c1ccc(NC(=O)C2COc3ccccc3O2)cc1 (configuration not stated),inactive: 67%
21,Cc1ccc(NC(=O)CSc2nc(-c3cccs3)cc(C(F)(F)F)n2)cc1C,inactive: 155%
22,COc1ccc(-c2nn[nH]n2)cc1,inactive: 105%

row,Structure (SMILES),survival
1,CSc1cccc(N2C(=O)N(CC(=O)NCc3ccccc3Cl)c3ccccc3S2(=O)=O)c1,inactive: 119%
2,CCOc1ccccc1N(C)C(=O)Cn1cnc2onc(-c3ccc(F)cc3)c2c1=O,inactive: 91%
3,CC(C)CCOc1ccc(Oc2nc(N(C)C)nc(N(C)C)n2)nn1,inactive: 62%
4,CCOC(=O)c1cnc(SC2CC(=O)N(c3ccccc3)C2=O)nc1N (configuration not stated),inactive: 82%
5,COc1ccccc1-n1ncc2c(=O)[nH]c(SCC(=O)Nc3cccc(F)c3)nc21,inactive: 71%
6,COc1ccc2c(CNCc3cccs3)c(C(=O)O)n(Cc3ccc(F)cc3Cl)c2c1,inactive: 115%
7,CCOc1ccc(C(=O)c2oc3ccccc3c2NC(=O)c2cc(-c3ccccc3)on2)cc1,inactive: 87%
8,Cc1ccc(NC(=O)C(Cc2ccccc2)n2cccc2)c(C)c1 (configuration not stated),inactive: 67%
9,O=C(Nc1cccc(C(=O)N2CCN(c3ccc(F)cc3)CC2)c1)c1nsc2ccccc12,inactive: 88%
10,CCCN(C(=O)c1nn(-c2ccc(C)cc2)c(=O)c2c1c1ccccc1n2C)c1ccccc1C,inactive: 89%
11,Cc1oc2ccc(O)c(CN3CCN(Cc4ccccc4)CC3)c2c1C(=O)Nc1cccc(Cl)c1C,inactive: 72%
12,O=C(Nc1ccc(Oc2ccccc2)cc1)C1CCN(S(=O)(=O)c2ccccc2)CC1,inactive: 51%
13,CCOC(=O)c1c(NC(=O)c2ccc(S(=O)(=O)N(C)C)cc2)sc2c1CCN(C)C2,inactive: 75%
14,Cc1cc(C)c2[nH]c(=O)c(C(c3nnnn3CC3CCCO3)N3CCN(c4ccccc4F)CC3)cc2c1 (configuration not stated),inactive: 91%
15,COc1ccc(NC(=O)Cn2c(=O)n(CC3CCCO3)c(=O)c3ccccc32)cc1 (configuration not stated),inactive: 102%
16,CCCCCCNc1ncnc2c1sc1nc(N3CCOCC3)c3c(c12)CCCC3,inactive: 83%
17,CCCCSCCCNC(=O)c1cc(-c2cccnc2)nc2ccc(S(=O)(=O)N3CCC(C)CC3)cc12,inactive: 83%
18,CCc1ccc(Sc2cc(C(=O)NCCCN3CCCC(C)C3)c3ccccc3n2)cc1 (configuration not stated),inactive: 75%
19,Cc1ccccc1CCNCc1c(C(=O)O)c(C)n(Cc2c(F)cccc2Cl)c1C,inactive: 85%
20,Cc1ccc(NC(=O)CN2CCN(C3CCCCC3)C(=O)C2=O)cc1,inactive: 80%
21,O=c1cc(COc2cccc(C(F)(F)F)c2)nc2sc3c(n12)CCCC3,inactive: 107%
22,Cc1ccc(-n2ncc(C(=O)N3CCN(C4CCCCC4)CC3)c2C2CCN(C(=O)OC(C)(C)C)CC2)cc1,inactive: 82%

row,Structure (SMILES),survival
1,CCOc1ccc(NC(=O)c2cnn3c(C(F)F)cc(-c4ccc(C)cc4)nc23)cc1,inactive: 73%
2,CC(=O)c1ccc(N2CCN(C(=O)Cn3ncc4c3-c3ccccc3OC4)CC2)cc1,inactive: 61%
3,COc1ccccc1/C=C/c1nc(C#N)c(NC(C)c2ccccc2)o1 (configuration not stated),inactive: 70%
4,Cc1c(Cl)cccc1NC(=O)CN1C(=O)CSc2ccc(S(=O)(=O)N3CCCC3)cc21,inactive: 103%
5,CC(=O)c1cc(-c2ccc(F)cc2)n(CCC(=O)NCc2ccc(C)cc2)c1C,inactive: 73%
6,Cc1[nH]c2ccc(-c3nnc(SCc4ccc(C(=O)O)cc4)o3)cc2c1C,inactive: 65%
7,CCn1c(=O)c2sccc2n2c(CCCC(=O)N3CCN(c4ccccc4OC)CC3)nnc12,inactive: 91%
8,Cc1ccccc1C(=O)NCc1ccc2c(c1)CCN2C(=O)c1ccccc1,inactive: 84%
9,CCOC(=O)N1CCC(NC(=O)c2cnn(-c3cccc(C)c3)c2C2CCN(C(=O)OC(C)(C)C)CC2)CC1,inactive: 83%
10,CC(C)=CCC(C)(C)CNc1ccc(C)cc1,inactive: 66%
11,COc1ccc(CNC(=O)C(=O)NCC(c2cccs2)S(=O)(=O)c2ccc(C)cc2)cc1 (configuration not stated),inactive: 78%
12,O=C(c1ccc(F)cc1)N1c2ncnn2C2(CCCCC2)[C@@H]2CCCC[C@@H]21,inactive: 91%
13,Cc1ccc(-c2nsc(NC(=O)c3oc4cc(C)c(Cl)cc4c3C)n2)cc1,inactive: 74%
14,CCn1c(SCC(=O)Nc2cccc(Cl)c2)nnc1-c1nonc1NC(C)=O,inactive: 106%
15,CC(C)NC(=O)c1nn(C)c2c1CS(=O)(=O)c1ccccc1-2,active: 51%
16,COC(=O)c1cc(Cl)ccc1NC(=O)Cn1c(C)cc(C)c(C#N)c1=O,inactive: 99%
17,CCOc1ccccc1CN(CCc1ccc2c(c1)OCO2)Cc1cc(OC)c(OC)cc1OC,inactive: 56%
18,COc1ccccc1CNc1nc(-c2ccco2)nn1S(=O)(=O)c1ccc(C)cc1,inactive: 66%
19,Clc1ccc(CN2CCc3nc(Nc4ccc5c(c4)OCCO5)ncc3C2)cc1,inactive: 94%
20,COc1ccc2oc(=O)cc(CN3CCN(C(=O)c4ccccc4)CC3)c2c1,active: 41%
21,O=C(Nc1ccc(O)c(-c2nc3ccccc3o2)c1)c1cccs1,inactive: 75%
